# Assay results taken from the supplement of paper PMC8728848.
# The list shows a part of the results.
# B1: Clec49 (Caenorhabditis elegans) (protein)
# chain: MTRLTLLLFGLLGAATAQTCNTGGIYNEQFNRCYQYFTAPAQFSFAEQQCNLLGGHLASVQNGQENALLQSNAANSFKRSNYSDYWIGATDLETSGTWKWTDPSVTFDYSNWQLGEPQSGSDCAIQDKGDGTWSAIGCTSYRPYVCVTPVIMTATCPPITTPIPTTCPTPAPCPIKQCVPSCDQGWTYFSPTDFCYRVYHGEKFNDAEASCVLLGGHLASIHSLTENTFVNNIASCGIKEGKYEHLAWIGMRKVGQDWVWTDGTPSDYFNWAPKQPDNPKKELCVQTAPDLSHDKWYENWNNLECNEVMRAYICKKASIHN
# Experiments:
# Assay in all cases: glycan array binding signal (z-score within array); higher = stronger binding
# Conditions in all cases: glycan notation: IUPAC condensed, linker removed
# [1] = target: Gal(b1-3)GalNAc(b1-3)Gal(a1-4)Gal(b1-4)Glc
# Procedure, shortened: (§1)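 The binding signal is a Z-score computed within each array and averaged over linkers. Arrays of the same protein sequence at different concentrations or buffers were also averaged together. Data originate from 3228 arrays in the Consortium for Functional Glycomics database, kept only where the protein sequence was available.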
# [2] = target: Gal(b1-3)GalNAc(b1-4)Gal(b1-4)Glc
# Procedure, shortened: as §1
# [3] = target: Gal(b1-3)GalNAc(b1-4)[Neu5Ac(a2-3)]Gal(b1-4)Glc
# Procedure, shortened: as §1
# Gal(b1-3)GlcNAc = target: Gal(b1-3)GlcNAc
# Procedure, shortened: as §1
# [4] = target: Gal(b1-3)GlcNAc(a1-3)Gal(b1-4)GlcNAc
# Procedure, shortened: as §1
# [5] = target: Gal(b1-3)GlcNAc(a1-6)Gal(b1-4)GlcNAc
# Procedure, shortened: as §1
# Gal(b1-3)GlcNAc(b1-2)Man = target: Gal(b1-3)GlcNAc(b1-2)Man
# Procedure, shortened: as §1
# [6] = target: Gal(b1-3)GlcNAc(b1-2)Man(a1-3)[Gal(b1-3)GlcNAc(b1-2)Man(a1-6)]Man(b1-4)GlcNAc(b1-4)GlcNAc
# Procedure, shortened: as §1
# [7] = target: Gal(b1-3)GlcNAc(b1-2)Man(a1-3)[Gal(b1-3)GlcNAc(b1-2)Man(a1-6)]Man(b1-4)GlcNAc(b1-4)[Fuc(a1-6)]GlcNAc
# Procedure, shortened: as §1
# [8] = target: Gal(b1-3)GlcNAc(b1-2)Man(a1-3)[GlcNAc(b1-4)][Gal(b1-3)GlcNAc(b1-2)Man(a1-6)]Man(b1-4)GlcNAc(b1-4)GlcNAc
# Procedure, shortened: as §1
# [9] = target: Gal(b1-3)GlcNAc(b1-2)[Gal(b1-3)GlcNAc(b1-6)]Man(a1-6)[Gal(b1-3)GlcNAc(b1-2)Man(a1-3)]Man(b1-4)GlcNAc(b1-4)GlcNAc
# Procedure, shortened: as §1
# [10] = target: Gal(b1-3)GlcNAc(b1-3)Gal(b1-3)GlcNAc
# Procedure, shortened: as §1
# [11] = target: Gal(b1-3)GlcNAc(b1-3)Gal(b1-4)Glc
# Procedure, shortened: as §1
# [12] = target: Gal(b1-3)GlcNAc(b1-3)Gal(b1-4)GlcNAc
# Procedure, shortened: as §1
# [13] = target: Gal(b1-3)GlcNAc(b1-3)Gal(b1-4)GlcNAc(b1-2)Man(a1-3)[Gal(b1-3)GlcNAc(b1-3)Gal(b1-4)GlcNAc(b1-2)Man(a1-6)]Man(b1-4)GlcNAc(b1-4)GlcNAc
# Procedure, shortened: as §1
# [14] = target: Gal(b1-3)GlcNAc(b1-3)Gal(b1-4)GlcNAc(b1-2)[Gal(b1-3)GlcNAc(b1-3)Gal(b1-4)GlcNAc(b1-6)]Man(a1-6)[Gal(b1-3)GlcNAc(b1-3)Gal(b1-4)GlcNAc(b1-2)Man(a1-3)]Man(b1-4)GlcNAc(b1-4)[Fuc(a1-6)]GlcNAc
# Procedure, shortened: as §1
# [15] = target: Gal(b1-3)GlcNAc(b1-3)Gal(b1-4)GlcNAc(b1-3)Gal(b1-4)GlcNAc(b1-2)[Gal(b1-3)GlcNAc(b1-3)Gal(b1-4)GlcNAc(b1-3)Gal(b1-4)GlcNAc(b1-6)]Man(a1-6)[Gal(b1-3)GlcNAc(b1-3)Gal(b1-4)GlcNAc(b1-3)Gal(b1-4)GlcNAc(b1-2)Man(a1-3)]Man(b1-4)GlcNAc(b1-4)[Fuc(a1-6)]GlcNAc
# Procedure, shortened: as §1
# [16] = target: Gal(b1-3)GlcNAc(b1-3)Gal(b1-4)GlcNAc(b1-6)[Gal(b1-3)GlcNAc(b1-3)]Gal(b1-4)Glc
# Procedure, shortened: as §1
# [17] = target: Gal(b1-3)GlcNAc(b1-3)Gal(b1-4)[Fuc(a1-3)]GlcNAc
# Procedure, shortened: as §1
# [18] = target: Gal(b1-3)GlcNAc(b1-3)Gal(b1-4)[Fuc(a1-3)]GlcNAc(b1-6)[Gal(b1-3)GlcNAc(b1-3)]Gal(b1-4)Glc
# Procedure, shortened: as §1
# [19] = target: Gal(b1-3)GlcNAc(b1-3)GalNAc
# Procedure, shortened: as §1
# [20] = target: Gal(b1-3)GlcNAc(b1-6)Gal(b1-4)GlcNAc
# Procedure, shortened: as §1
# [21] = target: Gal(b1-3)GlcNAc(b1-6)GalNAc
# Procedure, shortened: as §1
# [22] = target: Gal(b1-3)GlcNAc(b1-6)[Gal(b1-3)]GalNAc
# Procedure, shortened: as §1
# Gal(b1-3)GlcNAc6S = target: Gal(b1-3)GlcNAc6S
# Procedure, shortened: as §1
# [23] = target: Gal(b1-3)[Fuc(a1-4)]GlcNAc
# Procedure, shortened: as §1
# [24] = target: Gal(b1-3)[Fuc(a1-4)]GlcNAc(b1-2)Man
# Procedure, shortened: as §1
# [25] = target: Gal(b1-3)[Fuc(a1-4)]GlcNAc(b1-2)Man(a1-3)[Gal(b1-3)[Fuc(a1-4)]GlcNAc(b1-2)Man(a1-6)]Man(b1-4)GlcNAc(b1-4)[Fuc(a1-6)]GlcNAc
# Procedure, shortened: as §1
# [26] = target: Gal(b1-3)[Fuc(a1-4)]GlcNAc(b1-3)Gal(b1-3)[Fuc(a1-4)]GlcNAc
# Procedure, shortened: as §1
# [27] = target: Gal(b1-3)[Fuc(a1-4)]GlcNAc(b1-3)Gal(b1-4)[Fuc(a1-3)]GlcNAc
# Procedure, shortened: as §1
# [28] = target: Gal(b1-3)[Fuc(a1-4)]GlcNAc(b1-6)GalNAc
# Procedure, shortened: as §1
# [29] = target: Gal(b1-3)[GlcNAc(b1-6)]GalNAc
# Procedure, shortened: as §1
# [30] = target: Gal(b1-3)[Neu5Ac(a2-6)]GalNAc
# Procedure, shortened: as §1
# [31] = target: Gal(b1-3)[Neu5Ac(a2-6)]GlcNAc(b1-4)Gal(b1-4)Glc
# Procedure, shortened: as §1
# [32] = target: Gal(b1-3)[Neu5Ac(b2-6)]GalNAc
# Procedure, shortened: as §1
# Gal(b1-4)Gal = target: Gal(b1-4)Gal
# Procedure, shortened: as §1
# [33] = target: Gal(b1-4)GalNAc(a1-3)[Fuc(a1-2)]Gal(b1-4)GlcNAc
# Procedure, shortened: as §1
# [34] = target: Gal(b1-4)GalNAc(b1-3)[Fuc(a1-2)]Gal(b1-4)GlcNAc
# Procedure, shortened: as §1
binder,measurement,setting,value
B1,glycan array binding signal (z-score),[1],0.34
same,glycan array binding signal (z-score),[2],-0.089
same,glycan array binding signal (z-score),[3],-0.776
same,glycan array binding signal (z-score),Gal(b1-3)GlcNAc,-0.244
same,glycan array binding signal (z-score),[4],-0.676
same,glycan array binding signal (z-score),[5],-0.5
same,glycan array binding signal (z-score),Gal(b1-3)GlcNAc(b1-2)Man,1.72
same,glycan array binding signal (z-score),[6],1.15
same,glycan array binding signal (z-score),[7],0.219
same,glycan array binding signal (z-score),[8],3.15
same,glycan array binding signal (z-score),[9],0.209
same,glycan array binding signal (z-score),[10],-0.234
same,glycan array binding signal (z-score),[11],-0.561
same,glycan array binding signal (z-score),[12],-0.381
same,glycan array binding signal (z-score),[13],-0.992
same,glycan array binding signal (z-score),[14],0.996
same,glycan array binding signal (z-score),[15],-0.063
same,glycan array binding signal (z-score),[16],0.535
same,glycan array binding signal (z-score),[17],0.103
same,glycan array binding signal (z-score),[18],0.869
same,glycan array binding signal (z-score),[19],-0.445
same,glycan array binding signal (z-score),[20],0.07
same,glycan array binding signal (z-score),[21],0.153
same,glycan array binding signal (z-score),[22],0.316
same,glycan array binding signal (z-score),Gal(b1-3)GlcNAc6S,-0.351
same,glycan array binding signal (z-score),[23],-0.6
same,glycan array binding signal (z-score),[24],0.1
same,glycan array binding signal (z-score),[25],-0.736
same,glycan array binding signal (z-score),[26],-0.576
same,glycan array binding signal (z-score),[27],-0.021
same,glycan array binding signal (z-score),[28],0.487
same,glycan array binding signal (z-score),[29],-0.227
same,glycan array binding signal (z-score),[30],0.301
same,glycan array binding signal (z-score),[31],-0.967
same,glycan array binding signal (z-score),[32],0.371
same,glycan array binding signal (z-score),Gal(b1-4)Gal,-0.065
same,glycan array binding signal (z-score),[33],-0.949
same,glycan array binding signal (z-score),[34],-0.191
